Assay results reported in the supplement of paper PMC11417369.
± gives the standard deviation of the averaged measurements. This is one part of the list.

Each sequence was assayed on PfAP2-EXP AP2 domain (GST-tagged) (assay: gcPBM binding intensity (ln(normalized median fluorescence intensity)); higher = stronger DNA binding).
In short: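 Plasmodium falciparum DNA-binding domains carrying a GST tag were expressed in E. coli and applied for 1 h, at about 25 μg on average, to an Agilent 4 × 180k array. The array held primer-extended double-stranded 36-bp intergenic genomic probes together with negative controls, and binding took place in 1× PBS with 1% milk, 0.2 mg/ml BSA, 0.5% salmon testes DNA and 0.03% Triton X-100. An Alexa488 anti-GST antibody detected bound protein, and the array was scanned at 488 nm. Binding intensity is taken as the highest Masliner-normalised natural-log median intensity across replicate spots of either probe orientation.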
“TATTATATATAATATTGTACATTAAAATATTAAAGA [XGTACX_site3698]” was tested, and the “gcPBM binding intensity (ln)” value was 8.42 ± 0.33. With “ATATGTATTAAGTGTACACATATAATGGGTTTTCTT [CACACA_site5328]” the “gcPBM binding intensity (ln)” value was 8.71 ± 0.27. For “GGAACGTTCATATTTCCACACACAAAAAATAAATAT [CACACA_site9101]”, the “gcPBM binding intensity (ln)” value was 8.62 ± 0.61. In the case of “TTTATTTTAAAATATAGTACGCAAATAAAAATAAAT [XGTACX_site7783]”, the “gcPBM binding intensity (ln)” value is reported as 8.99 ± 0.4. In the case of “TATATACTATATATATGTACACAAAATTATTTTGAA [XGTACX_site8232]”, the “gcPBM binding intensity (ln)” value is reported as 8.54 ± 0.35. “ATATGTAGTGTTATTTGTTCATTGTTTTAATTTTTA [CACACA_negctrl_site1394]” was tested, and the “gcPBM binding intensity (ln)” value was 8.7 ± 0.47. For “TAATTATATAAATACACACACATACACCCAAATAAA [CACACA_site5819]”, the “gcPBM binding intensity (ln)” value was 8.96 ± 0.48. With “TAAATGAAAATATGTACACACTTGAAAATTTTTATG [CACACA_site5599]” the “gcPBM binding intensity (ln)” value was 8.69 ± 0.43. “TATATTATATATATATGTACATATTATTATATCTAA [XGTACX_site3835]” was tested, and the “gcPBM binding intensity (ln)” value was 8.31 ± 0.33. For “TTTTGTATTTTTCACACACACATAAGTAAACAATAA [CACACA_site1899]”, the “gcPBM binding intensity (ln)” value was 8.62 ± 0.35. For “AAACATATGGTATTTAAACACACAAAAAAGAAAGAA [CACACA_site8239]”, the “gcPBM binding intensity (ln)” value was 9.07 ± 0.4. For “ATGTTGTGGATATATACACACATACATATTTATATA [CACACA_site6857]”, the “gcPBM binding intensity (ln)” value was 8.39 ± 0.31. In the case of “AAATTAAATATTATATTAATTCTTAAATTTTTTTTT [CACACA_negctrl_site439]”, the “gcPBM binding intensity (ln)” value is reported as 7.8 ± 0.34. “ATACAATAATATAAATGTACAAATTATATCTTCATT [XGTACX_site8994]” was tested, and the “gcPBM binding intensity (ln)” value was 8.37 ± 0.33. “AATCTTTTTAAATCTTGATTAATTTCGGGTATATAT [TGCATGCA_negctrl_site107]” was tested, and the “gcPBM binding intensity (ln)” value was 8.53 ± 0.48. With “TACAAGAACAAAAAATGTACGAAATAATTACAAATA [XGTACX_site5824]” the “gcPBM binding intensity (ln)” value was 8.77 ± 0.42. With “AATTTCAATTTCTGTTGTACACTTTTTAATAGTAAA [XGTACX_site4085]” the “gcPBM binding intensity (ln)” value was 8.65 ± 0.46. With “AAATTTAAAAATAAAGAACACACATATGTAAAATAT [CACACA_site9252]” the “gcPBM binding intensity (ln)” value was 8.78 ± 0.52. “AAAAAAAAAAAAAAAACACACAAACATCAAATTACT [CACACA_site6950]” was tested, and the “gcPBM binding intensity (ln)” value was 8.69 ± 0.24. “TATGATAAATATGGAGCACACACACCGAAACATACA [CACACA_site8031]” was tested, and the “gcPBM binding intensity (ln)” value was 9.01 ± 0.49. In the case of “TAGCATGATTTGCCTTGTACACAACCGTTTTAATAA [XGTACX_site7911]”, the “gcPBM binding intensity (ln)” value is reported as 8.66 ± 0.4. “AAGTGTTCTTGTTATACACACACATATATATATATA [CACACA_site8251]” was tested, and the “gcPBM binding intensity (ln)” value was 10.1 ± 0.16. “TATTTATAAATATACGCACACATTAATATATATATA [CACACA_site3969]” was tested, and the “gcPBM binding intensity (ln)” value was 9.44 ± 0.21. With “GTTGGTAGGCGGTACGGTACACGTAGTATTTTTCTT [XGTACX_site4213]” the “gcPBM binding intensity (ln)” value was 8.64 ± 0.39. With “ATATTATTTATTTTTAAATTATATTGATTATTTTTT [CACACA_negctrl_site451]” the “gcPBM binding intensity (ln)” value was 7.94 ± 0.35. In the case of “AGTATGTAAATGTGCCATATATATATTAAATACATA [CACACA_negctrl_site14]”, the “gcPBM binding intensity (ln)” value is reported as 8.57 ± 0.36. In the case of “TAGAAATATATTTATTGTACATTGTATATATTATAT [XGTACX_site7584]”, the “gcPBM binding intensity (ln)” value is reported as 8.35 ± 0.48. In the case of “TTGAAGTGTACTATTTTATATATATATATACATTTT [CACACA_negctrl_site224]”, the “gcPBM binding intensity (ln)” value is reported as 8.66 ± 0.23. “TCTTTTTTTTTTACTAGTACTTAAAAAAAAAATATG [XGTACX_site4395]” was tested, and the “gcPBM binding intensity (ln)” value was 8.39 ± 0.33. “ATTATGTGCCAATACACACACACATCTATATTTATA [CACACA_site6359]” was tested, and the “gcPBM binding intensity (ln)” value was 8.72 ± 0.31. For “TTTTAATTTTTAAGACGTACTATCATTTGATAATAA [XGTACX_site3942]”, the “gcPBM binding intensity (ln)” value was 8.1 ± 0.42. For “TACGATGTTTTAAAATGTACATAAAAGTCACATAAG [XGTACX_site3297]”, the “gcPBM binding intensity (ln)” value was 8.52 ± 0.34. TAATGTTCCTATATAGTGCAATTATGTTTTATTTCT was tested, and the “gcPBM binding intensity (ln)” value was 8.79 ± 0.22. For “ACTGTGGGAATAACCACACACACACCCACATATATA [CACACA_site3542]”, the “gcPBM binding intensity (ln)” value was 8.47 ± 0.38. In the case of “ATATTTATATGAATCACACACAAAAAATATAGAGAT [CACACA_site7775]”, the “gcPBM binding intensity (ln)” value is reported as 8.73 ± 0.29. In the case of “TATATACGCATGCGCACACACAAGTGGGAAATTTGG [CACACA_site1785]”, the “gcPBM binding intensity (ln)” value is reported as 9.3 ± 0.43. For “TTATTATATAAATAAAAAAAAAAAAAAAAAAAAAAA [CACACA_negctrl_site1455]”, the “gcPBM binding intensity (ln)” value was 7.9 ± 0.37. “AAATCACAAAAAAAAAAAAAAATATATATATATATA [CACACA_negctrl_site10]” was tested, and the “gcPBM binding intensity (ln)” value was 10.1 ± 0.37. In the case of “CATAAATACAAATATACACACATATATATATATATA [CACACA_site2633]”, the “gcPBM binding intensity (ln)” value is reported as 10.1 ± 0.35. In the case of “AATATGTTTTTTAGATGTACAGATTAAATATTAAAA [XGTACX_site7308]”, the “gcPBM binding intensity (ln)” value is reported as 8.47 ± 0.42. In the case of “AAATAGTAAGAGATGGTGCGTTTCCTTTTTTTTTTT [GTGCAC_site9663]”, the “gcPBM binding intensity (ln)” value is reported as 8.54 ± 0.15. With “TTTAAAAATATTTCACGTACGCATTTTAAAAAGTAT [XGTACX_site8026]” the “gcPBM binding intensity (ln)” value was 8.57 ± 0.35. For “TTTTTTTCATATATATGTACATAATTATATATGCAT [XGTACX_site3257]”, the “gcPBM binding intensity (ln)” value was 8.83 ± 0.38. With “CGTGGGAGCAGACACACACACACACCCATATATATA [CACACA_site334]” the “gcPBM binding intensity (ln)” value was 8.53 ± 0.12.
